Results on 6 molecules are retold here after publication PMC2661964, “Mammalian Kinesin-3 Motors Are Dimeric In Vivo and Move by Processive Motility upon Release of Autoinhibition” (PLoS Biology, 2009).

The target in one test is KIF1A(1–369)-mCit (rat) (UniProt F1M4A4). The test can be described thus: cross-linking; lysates of transfected COS cells in borate buffer (50 mM NaBorate, 100 mM potassium acetate, 2 mM MgCl2, 1 mM EGTA, 1% Triton X-100, pH 8.57), 20 mM DMP for 30 min or untreated; SDS-PAGE, immunoblot.
Test [1] addresses KIF1A(1–369)-3xmCit (rat) (UniProt F1M4A4). Nature of the test: stepwise photobleaching of single molecules (TIRF microscopy); lysates of COS cells expressing 3xmCit-tagged constructs, in flow chambers with Cy5-microtubules, with AMPPNP; number of bleaching steps of 160–200 spots for each construct.
Another test deals with KIF1A(1–377)-mCit (rat) (UniProt F1M4A4). The test can be described thus: cross-linking; lysates of transfected COS cells in borate buffer (50 mM NaBorate, 100 mM potassium acetate, 2 mM MgCl2, 1 mM EGTA, 1% Triton X-100, pH 8.57), 20 mM DMP for 30 min or untreated; SDS-PAGE, immunoblot. For orientation: A western blot detects proteins with antibodies after separation by electrophoresis.

Another test concerns the target T1, KIF1A(1–393)-Myc (rat) (UniProt F1M4A4).
T1 sequence: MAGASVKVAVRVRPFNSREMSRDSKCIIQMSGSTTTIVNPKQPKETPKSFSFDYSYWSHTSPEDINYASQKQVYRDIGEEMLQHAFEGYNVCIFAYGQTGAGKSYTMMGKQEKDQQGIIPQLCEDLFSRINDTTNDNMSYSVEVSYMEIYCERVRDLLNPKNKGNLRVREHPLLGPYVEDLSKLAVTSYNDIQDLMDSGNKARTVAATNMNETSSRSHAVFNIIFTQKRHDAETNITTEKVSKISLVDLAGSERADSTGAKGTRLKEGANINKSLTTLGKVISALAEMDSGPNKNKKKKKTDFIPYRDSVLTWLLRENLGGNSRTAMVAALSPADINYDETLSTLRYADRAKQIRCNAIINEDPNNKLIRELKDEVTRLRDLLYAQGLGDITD
The test can be described thus: co-IP; lysates of COS cells coexpressing Myc- and mCit-tagged KIF1A constructs of the same length; immunoprecipitated with anti-Myc or control IgG, SDS-PAGE, immunoblot.

The next test has as its target KIF1A(1–381)-mCit (rat) (UniProt F1M4A4). The test can be described thus: cross-linking; lysates of transfected COS cells in borate buffer (50 mM NaBorate, 100 mM potassium acetate, 2 mM MgCl2, 1 mM EGTA, 1% Triton X-100, pH 8.57), 20 mM DMP for 30 min or untreated; SDS-PAGE, immunoblot.
Test [2] addresses KIF1A(1–381)-3xmCit (rat) (UniProt F1M4A4). Nature of the test: stepwise photobleaching of single molecules (TIRF microscopy); lysates of COS cells expressing 3xmCit-tagged constructs, in flow chambers with Cy5-microtubules, with AMPPNP; number of bleaching steps of 160–200 spots for each construct.

Results are given in words; binding and its absence hold for the method and conditions named. For part of these data: In cells and extracts the contact can be indirect. Some entries that bind do so weakly or less than the wild type. For part of these data: Where a sequence is shown, tags or fusion partners need not be part of it.

B1: KIF1A(1–369)-mCit (domain or fragment, UniProt F1M4A4 1-369)
chain: MAGASVKVAVRVRPFNSREMSRDSKCIIQMSGSTTTIVNPKQPKETPKSFSFDYSYWSHTSPEDINYASQKQVYRDIGEEMLQHAFEGYNVCIFAYGQTGAGKSYTMMGKQEKDQQGIIPQLCEDLFSRINDTTNDNMSYSVEVSYMEIYCERVRDLLNPKNKGNLRVREHPLLGPYVEDLSKLAVTSYNDIQDLMDSGNKARTVAATNMNETSSRSHAVFNIIFTQKRHDAETNITTEKVSKISLVDLAGSERADSTGAKGTRLKEGANINKSLTTLGKVISALAEMDSGPNKNKKKKKTDFIPYRDSVLTWLLRENLGGNSRTAMVAALSPADINYDETLSTLRYADRAKQIRCNAIINEDPNNKLI
In the case of B1, the binding entry in the test with KIF1A(1–369)-mCit (rat) is “no binding”.

B2: KIF1A(1–369)-3xmCit (domain or fragment, UniProt F1M4A4 1-369)
chain: B1 chain
On to B2, for which the binding entry in test [1] is recorded as “no binding”.

B3: KIF1A(1–377)-mCit (domain or fragment, UniProt F1M4A4 1-377)
chain: MAGASVKVAVRVRPFNSREMSRDSKCIIQMSGSTTTIVNPKQPKETPKSFSFDYSYWSHTSPEDINYASQKQVYRDIGEEMLQHAFEGYNVCIFAYGQTGAGKSYTMMGKQEKDQQGIIPQLCEDLFSRINDTTNDNMSYSVEVSYMEIYCERVRDLLNPKNKGNLRVREHPLLGPYVEDLSKLAVTSYNDIQDLMDSGNKARTVAATNMNETSSRSHAVFNIIFTQKRHDAETNITTEKVSKISLVDLAGSERADSTGAKGTRLKEGANINKSLTTLGKVISALAEMDSGPNKNKKKKKTDFIPYRDSVLTWLLRENLGGNSRTAMVAALSPADINYDETLSTLRYADRAKQIRCNAIINEDPNNKLIRELKDEVT
With B3, in the test with KIF1A(1–377)-mCit (rat), the binding result is on record as “no binding”.

B4: KIF1A(1–393)-mCit (domain or fragment, rat, UniProt F1M4A4 1-393, looked up)
chain: T1 sequence
notes: full NC and several residues of the hinge; Plasmid was a gift from Gary Banker; source: COS cells, transfected, in lysate; not shown: mCit (monomeric citrine), C-terminal, kept
On to B4, for which, in the test with KIF1A(1–393)-Myc (rat), the binding result was “binds”.

B5: KIF1A(1–381)-mCit (domain or fragment, UniProt F1M4A4 1-381)
chain: MAGASVKVAVRVRPFNSREMSRDSKCIIQMSGSTTTIVNPKQPKETPKSFSFDYSYWSHTSPEDINYASQKQVYRDIGEEMLQHAFEGYNVCIFAYGQTGAGKSYTMMGKQEKDQQGIIPQLCEDLFSRINDTTNDNMSYSVEVSYMEIYCERVRDLLNPKNKGNLRVREHPLLGPYVEDLSKLAVTSYNDIQDLMDSGNKARTVAATNMNETSSRSHAVFNIIFTQKRHDAETNITTEKVSKISLVDLAGSERADSTGAKGTRLKEGANINKSLTTLGKVISALAEMDSGPNKNKKKKKTDFIPYRDSVLTWLLRENLGGNSRTAMVAALSPADINYDETLSTLRYADRAKQIRCNAIINEDPNNKLIRELKDEVTRLRD
Consider B5, for which the binding entry with KIF1A(1–381)-mCit (rat) is “no binding”.

B6: KIF1A(1–381)-3xmCit (domain or fragment, UniProt F1M4A4 1-381)
chain: B5 chain
For B6, the binding entry in test [2] is listed as “no binding”.
